# Measurements reported in the RNAGym collection of RNA variant scans (doi:10.7554/elife.90254).
# The source gives no read counts; variants with many changes may rest on few reads.
# B1: LINE1-mini (parent)
# chain: GGCAGAGCUCAACACAGCGUGGCAAAGUGGCUGUGGCUAGACUGCC
# Variants of: B1
# Test: self-cleavage, relative activity (ratio to wild type); higher = more cleavage; in vitro, sequencing; the parent is a self-cleaving ribozyme
row,Variant,self-cleavage
1,GGCAGAGCUCAACACAGAGUGCCAAAGUGGCUGUGGCUGGACUGCC [C18A G22C A39G],0.09
2,GGCAGAGCUCAACACAGGGUGGCAUAGUGGCUGUGGCUAGGCUGCC [C18G A25U A41G],0.19
3,GGCAGAGCUCAACACAGAGUGGCAAAGUUGCUGUGGCUAGACUGCA [C18A G29U C46A],0.19
4,GGCAGAGCUCAACACAGGGUGGCAGAGUGGCUGUAGCUAUACUGCC [C18G A25G G35A G40U],0.45
5,GGCAGAGCUCAACACAGAGUUGCAAAGUGGCUGUGGCUAGACUGAC [C18A G21U C45A],0.44
6,GGCAGAGCUCAACACAGAGUGGCAAAGUGGCUCUGGCUAGACUGCA [C18A G33C C46A],0.02
7,GGCAGAGCUCAACACAGGGUGGCAACGUGGCUCUGGCUAGACUGCC [C18G A26C G33C],0.18
8,GGCAGAGCUCAACACAGAGAGGCAAUGUAGCUGUGGAUAGACUGCC [C18A U20A A26U G29A C37A],0.03
9,GGCAGAGCUCAACACAGAGUGGCAAAGUGGCUGUGGCUACACUGUC [C18A G40C C45U],0.02
10,GGCAGAGCUCAACACAGAAUUGCAAAGUGGCUGUAGCUAGACUGCC [C18A G19A G21U G35A],0.08
11,GGCAGAGCUCAACACAGAGUGCCAAAGUGGCUGUGGGUAGAUUGCC [C18A G22C C37G C42U],0.03
12,GGCAGAGCUCAACACAGAUUGGCAAAGUGGAGGUGGCUAGACUGCC [C18A G19U C31A U32G],0.05
13,GGCAGAGCUCAACACAGGGUGGAAAAGUGGCUGUGGCUGGACUGCC [C18G C23A A39G],0.05
14,GGCAGAGCUCAACACAGGGUGGCAGAGAGGCAGUGGCUAGACUGCC [C18G A25G U28A U32A],0.06
15,GGCAGAGCUCAACACAGAGUGCCAAAAUGGCUGUGGCUAGACUGCC [C18A G22C G27A],0.59
16,GGCAGAGCUCAACACAGAGUCGCAAAGUGGCUGUGGCUGGACUGCC [C18A G21C A39G],0.03
17,GGCAGAGCUCAACACAGAGUGGCAAAGUGUCUGUGGCUAGUCUGCC [C18A G30U A41U],0.38
18,GGCAGAGCUCAACACAGAGUGGCAAAGUCGGUGUGGGUGGACUGCC [C18A G29C C31G C37G A39G],0.01
19,GGCAGAGCUCAACACAGAGCGUCAAAGUGGCUGUGGCUAGACUGCC [C18A U20C G22U],0.57

row,Variant,self-cleavage
1,GGCAGAGCUCAACACAGGGUGGCGAAGUGGCUGUAGCUAGACUGCA [C18G A24G G35A C46A],0.04
2,GGCAGAGCUCAACACAGAGUGGCAAAGUGGCUGUAGCUUGACUGUC [C18A G35A A39U C45U],0.02
3,GGCAGAGCUCAACACAGAGUGGCAAAGUGGCUCUGCCUAGACUGCC [C18A G33C G36C],0.01
4,GGCAGAGCUCAACACAGAGUGGCAAAGUGACUGUGGCCAGACUUCC [C18A G30A U38C G44U],0.01
5,GGCAGAGCUCAACACAGAGUGACAAAGUGGCUGCGGCUAGACUGCC [C18A G22A U34C],0.04
6,GGCAGAGCUCAACACAGAGUGUCAAAGUGGCUGUGGCUAGUCUGCC [C18A G22U A41U],0.38
7,GGCAGAGCUCAACACAGAUUGGCAAGGUGGCUGUGACUAGCCUGCC [C18A G19U A26G G36A A41C],0.04
8,GGCAGAGCUCAACACAGAGUUGCCAAGUGGAUGUGGCUAGUCUGCC [C18A G21U A24C C31A A41U],0.02
9,GGCAGAGCUCAACACAGAUUGGCAAAGUGGCAGUGGAUAGACUGCC [C18A G19U U32A C37A],0
10,GGCAGAGCUCAACACAGAUUGGCAAAGUGGAUGUGGCGAGACUGCC [C18A G19U C31A U38G],0
11,GGCAGAGCUCAACACAGAGUUGCAAAGUGGCUGUGGCUAGCCUGCC [C18A G21U A41C],0.13
12,GGCAGAGCUCAACACAGAAUGGCAAAGUGGCUCUGGCUAGACUGCC [C18A G19A G33C],0.02
13,GGCAGAGCUCAACACAGAGUGUCAAUGGGGCUGUGCCUAGACUGCC [C18A G22U A26U U28G G36C],0.03
14,GGCAGAGCUCAACACAGGGUGGCCAAGGGGCUGUGGCUAGACUGCC [C18G A24C U28G],0.09
15,GGCAGAGCUCAACACAGAGUGGCAAAGUGGCUGUGGCGAGAACGCC [C18A U38G C42A U43C],0
16,GGCAGAGCUCAACACAGAGUGGCAAAAUGGCUAUGGCUAGACUGCC [C18A G27A G33A],0.02
17,GGCAGAGCUCAACACAGAGUCACAAAGUGGCUGUUGCUAGACUGCC [C18A G21C G22A G35U],0.09
18,GGCAGAGCUCAACACAGAGUGGCAAACUGGCUGUGGCUAGAUUGCC [C18A G27C C42U],0.05
19,GGCAGAGCUCAACACAGGGUGGCCAAGUGGCUGUGGCUAGACUGAC [C18G A24C C45A],0

row,Variant,self-cleavage
1,GGCAGAGCUCAACACAGGGUGGCAAUGUGGCUGUGGCUAGACUCCC [C18G A26U G44C],0.06
2,GGCAGAGCUCAACACAGAGUGGCAAAAGGGCUGUGGCUAGACUGCC [C18A G27A U28G],1.37
3,GGCAGAGCUCAACACAGAUUGGCAACGUGGCUGUGGCUAGACUGCC [C18A G19U A26C],0.01
4,GGCAGAGCUCAACACAGAGGGGCAAAGUGGCUGUGGCCAGACUGCC [C18A U20G U38C],0.11
5,GGCAGAGCUCAACACAGAGUGGCAAAGUGGCUCUGGCUAGAAUGCC [C18A G33C C42A],0.04
6,GGCAGAGCUCAACACAGAGUGGCAAAGUGGCUCUGGCUAGAGUGCC [C18A G33C C42G],0.01
7,GGCAGAGCUCAACACAGAGUGGCAAAGUGUUUGUGGCUAGACUGCC [C18A G30U C31U],0.05
8,GGCAGAGCUCAACACAGGGUGGCCAAGUGGCCGUGGCUAGACUGCC [C18G A24C U32C],0.02
9,GGCAGAGCUCAACACAGGGUGGCAAAGUGGCUGUGGCUUGACGGCC [C18G A39U U43G],0.01
10,GGCAGAGCUCAACACAGAGUGGCAAAGUGCCUGUGGCUAGACUGCA [C18A G30C C46A],2.6
11,GGCAGAGCUCAACACAGACUGGCAAAGUGGGUGUGGCUAGACAGCC [C18A G19C C31G U43A],0.02
12,GGCAGAGCUCAACACAGAAUGACAAAGUGGCUGUGGCUAGACUGCC [C18A G19A G22A],0.58
13,GGCAGAGCUCAACACAGAAUGCCAAAGUGGCUGUGGCUAGACUGCC [C18A G19A G22C],0.45
14,GGCAGAGCUCAACACAGGGUGGCCCAGUGGCUAGGGCUAGACUGCC [C18G A24C A25C G33A U34G],0.23
15,GGCAGAGCUCAACACAGAGGGGCAAAGUGGCUGUGGUUAGACUGCC [C18A U20G C37U],0.02
16,GGCAGAGCUCAACACAGAGAGCCAAAGUGGCUGUGGCUAGACUGCU [C18A U20A G22C C46U],0.16
17,GGCAGAGCUCAACACAGAGUAGCAAAGAGGCUGUGGCUAGACUGCC [C18A G21A U28A],0.95
18,GGCAGAGCUCAACACAGAGUGGCAAAGUGGCUAUGACUAGACCGCC [C18A G33A G36A U43C],0.02
